Data as given in ChEMBL document CHEMBL4888484, “Replenishing the malaria drug discovery pipeline: Screening and hit evaluation of the MMV Hit Generation Library 1 (HGL1) against asexual blood stage Plasmodium falciparum ,using a nano luciferase reporter read-out” (2022).
The whole screen tested about 150,000 compounds, of which about 540 (0.36%) showed an effect of 50% or more. This is one part of the list.

test system: Plasmodium falciparum; assay: Primary screen in NF54 nanoGlo assay, in single point, at 2uM, 72h; a lower Z score goes with more inhibition; assay type: functional, Erythrocyte; settings: timepoint 72 hour

SMILES	% Inhibition [%]	Z score
Cn1cc(-c2nccnc2CNC(=O)c2cncc(F)c2)cn1	-14	1.63
Cc1nc(NC(=O)c2cccnc2OCC(F)F)cc(C2CC2)n1	-5	0.57
CC(CN1CCS(=O)(=O)C(C)C1)c1cccc(Cl)c1 (stereo not given)	4	-0.49
CC(C)C[C@](C)(NCC(=O)N1CCC(C)CC1)C(N)=O	5	-0.92
CCCN(Cc1c(-c2ccccc2)noc1N(C)C(C)C)C(=O)c1ccc(F)cc1	-3	0.31
COc1ncccc1NC(=O)COc1cn(C)c(C)cc1=O	-2	0.31
c1cc(CCn2ccc(NCc3ccc4c(c3)CCO4)n2)ccn1	-6	1.04
CCN(C(=O)Cc1ccc2c(c1)CCCO2)c1cccnc1C	6	-0.75
COc1ccc([C@H](C)Nc2cnn(C)c2)cc1Cn1cccn1	-11	1.1
CCCS(=O)(=O)Nc1cc(-c2ccsc2)n[nH]1	5	-0.51
COc1ccc(-c2c(C)n[nH]c2NC(=O)[C@@H]2COc3ccccc3O2)cc1OC	-12	2.1
COc1ccc(-c2cc3n(n2)CCC(=O)N3Cc2ccc(C(=O)NCCN(C)C)cc2)cc1	10	-1.14
CC(C)[C@H](NC(=O)Nc1ccc(Cl)cc1)C(=O)N1CCCCC1	3	-0.37
COc1ccc(C(=O)N[C@H]2CC(=O)N(Cc3cccc4ccccc34)C2)cc1O	-14	1.3
Fc1ccc([C@@H]2C[C@H](c3cccs3)n3nnnc3N2)cc1	-15	1.95
O=C1CCCC[C@@H](C(=O)Nc2ccccc2N2CCc3ccccc32)N1	-2	0.3
Cc1cc2cccc(NC(=O)N3CCCO[C@@H](CN4CCOCC4)C3)c2o1	-2	0.25
Cc1n[nH]c(C)c1-c1cccc(C(=O)N2CCC3(CC2)N=C(N)NC3=O)c1	3	-0.43
CCOc1cc(N2CCOCC2)c(OCC)cc1NC(=O)c1ccc(-n2cnnn2)cc1	-8	1.18
Cc1ccc(-c2c(N3CCCC3)cn[nH]c2=O)cc1C	7	-1.01
CCN(C1CC(C)(C)C1)S(=O)(=O)C1CC1	-3	0.28
Cc1ccc(NS(C)(=O)=O)cc1NC(=O)NCC(F)(F)F	-15	2.2

SMILES	% Inhibition [%]	Z score
COC1CN(C(=O)C(C#N)Cc2ccc(C#N)cc2)CCC1C (stereo not given)	-10	1.42
O=C(C[C@H]1C(=O)Nc2ccccc2N1C(=O)c1ccco1)Nc1cccc(Cl)c1	0	-0.06
CCC(O)(CC)CNC(=O)NCc1nc(C)c(C)s1	-7	0.83
O=C(CCn1cncn1)N1CCC[C@@]2(CCC(=O)N(Cc3cccnc3)C2)C1	5	-1.05
FC(F)(F)c1nnc(N2CC[C@H]3CCCC[C@H]32)s1	-15	1.89
Cn1nc(C2CCCO2)cc1NC(=O)NC(CC1CCCO1)C(F)(F)F (stereo not given)	-2	0.33
C=C(C)CN(C)C(=O)[C@@H]1CCN(C(=O)OC(C)(C)C)C1	-17	2.27
OCC1(CNC(c2cc(F)c(F)c(F)c2)c2cc(F)c(F)c(F)c2)COC1	-3	0.56
O=c1[nH]c2ccc(F)cc2c(=O)n1C1CCN(S(=O)(=O)c2ccc3c(c2)CCO3)CC1	-7	1.24
CCn1nccc1C(=O)N1CCC2(CCC(=O)N(Cc3cnc(C)cn3)C2)CC1	-6	1.09
O=S(=O)(c1ccccc1)c1cnc2c(Br)c(-c3ccccc3)nn2c1-c1ccc(Cl)cc1	1	-0.09
Cc1cnccc1NCCn1cc(-c2ccc3c(c2)OCCO3)nn1	-14	2.42
COc1cc(Cl)cc2c1OC=CC(C(=O)Nc1ccc(C)cc1)=C2	39	-5.19
CC(C(N)=O)N1CC(c2ccccc2)OC(c2ccc(F)cc2)C1 (stereo not given)	-13	1.98
Cc1ccc(-c2nc(C)cc(OCC(=O)N3CCC[C@H](C)C3)n2)cc1	-9	1.46
O=C(COC1CCCCC1)Nc1nnc[nH]1	3	-0.48
COc1cccc(OC)c1-c1nc2c([nH]1)C[C@H](c1ccccc1)CNC2=O	-9	1.69
C=CCc1c(OC)ccc2[nH]cc(S(=O)(=O)c3ccc(C)cc3)c12	-4	0.44
c1ccc(-c2n[nH]c([C@@H]3CCCN3c3ncnc4[nH]ccc34)n2)cc1	-11	1.35
Cc1nn(-c2ccccc2)c2c1nc(CCC(=O)NCCN1CCCCC1)c(=O)n2C	4	-0.64
Cc1n[nH]c(C)c1[C@H](C)N(C)Cc1ccc2c(c1)CCO2	-9	1.23
CCn1cc(-c2nc(C)nn2Cc2ccc3c(c2)OCO3)cn1	-12	1.8

SMILES	% Inhibition [%]	Z score
C=CCCC(=O)NCc1ccc(-c2ccco2)o1	-1	0.19
COc1ccc(CCNC(=O)c2ccc(NC(=O)C3CC3C)cc2)cc1 (stereo not given)	-5	0.94
CCOC(=O)c1c(C)nc(Nc2nc3ccccc3s2)nc1C	-2	0.46
C[C@@]1(c2noc(C3CC3)n2)CCCCN1C(=O)CC1CCCCC1	-5	0.64
Cc1ccc(N2C[C@H](Cc3ccccc3)N(C(=O)c3cccn3C)CC2=O)cc1	-1	0.12
CCCC1CC1NC(=O)Nc1cnns1 (stereo not given)	29	-3.25
C[C@H]1c2ccsc2CCN1c1ncnc2c1cnn2CCC#N	-2	0.35
CNC(=O)N1CCC(n2c(C)nc(C(=O)NCc3ccc(OC)cc3)c2C)CC1	-10	1.69
CC(C)NS(=O)(=O)N1CCN(C(=O)c2csc3ccccc23)CC1	-4	0.65
Cc1ccc(C(=O)NC[C@@H](O)Cc2ccc(F)cc2F)c(=O)[nH]1	-8	0.97
COc1cc2c(cc1OC)CN(C(=O)C1(N)Cc3ccccc3C1)CC2	-16	2.11
Cc1cc(C)cc(CNCc2ccc(CN3CCC(O)CC3)cc2)c1	19	-2.72
OCC1(CNc2ccnc3ccsc23)CCOCC1	-4	0.38
O=C(NCc1ccccc1)c1cc(NS(=O)(=O)c2ccccc2F)ccc1N1CCNCC1	-19	2.25
CCN(c1ccccc1)S(=O)(=O)c1ccc(-c2[nH]ncc2C(=O)N2CCCCC2)o1	-16	1.9
CN1CCN(C[C@@H](O)CN2C(=O)c3ccccc3C2=O)CC1	-7	0.67
CC[C@H](Oc1ccc(F)cc1)C(=O)Nc1ccc(-n2cnnn2)cc1	-1	0.09
O=C(c1ccc(C(F)F)c(F)c1)N1CCC[C@H]1c1nnn[nH]1	-1	0.17
Cn1cc(NC(=O)CCc2ccccn2)cc(Br)c1=O	-10	1.66
OC[C@H]1CCCN1Cc1ccc(Br)o1	-7	1.14
O=C([C@@H]1CCC(=O)N1S(=O)(=O)c1ccccc1)N1CCN(Cc2ccc3c(c2)OCO3)CC1	-7	1.04
Cc1cnn(CCCNC2CCN(c3nnc(-c4ccccc4)s3)CC2)c1	-12	1.49

SMILES	% Inhibition [%]	Z score
O[C@@H](CCc1ccccc1)C1CCN(Cc2ccncc2Cl)CC1	-4	0.71
O=C(Nc1cnn(CC(=O)N2CCOCC2)c1)NC1CC2CC2C1 (stereo not given)	1	-0.2
CCCCn1nc(CC(C)C)nc1[C@H](C)n1ccnc1C	2	-0.31
CN(C)c1ccc(C(=O)N(C2CCCC2)C2CC2)cn1	1	-0.11
CC(C)(C)CN1CCC(Oc2cc(Cl)ccc2C(=O)N2CCCCC2)CC1	-1	0.21
Cc1nc(C(=O)Oc2ccc(F)cc2)cs1	-2	0.25
Cn1cnnc1CNC[C@H](O)c1ccc(Cl)cc1	-8	1.54
CC1COC(NC(=O)c2ccccc2)C(NC(=O)c2ccccc2)O1 (stereo not given)	6	-1.21
CC(C)C[C@@H](NC(=O)c1cccc(-c2ncc[nH]2)c1)C(N)=O	10	-1.36
CCN(C(=O)CN1CCCCCC1)C1CC1	-17	3.21
Cc1cc(C)n(CC(=O)N2CCC(CCn3c(C)cnc3C)CC2)n1	-11	1.43
O=C(NCc1ccncc1)N[C@@H](C1CCCC1)C(F)(F)F	-9	0.87
OC1(c2ccc3c(c2)CN(Cc2ccsc2)CCO3)CCN(c2ccccc2F)CC1	12	-1.53
CCN1C=NS(=O)(=O)c2ccc(C)cc21	-9	1.02
C[C@H]1CS(=O)(=O)CCN1Cc1nnc(-c2ccc(F)cc2)o1	4	-0.62
O=C(CCCc1ccccc1)N1CCN(Cc2ccn[nH]2)CC1	-3	0.52
CC(C)(O)CN(Cc1ccccc1)C(=O)NC1CC2CCC1O2 (stereo not given)	5	-0.53
COc1ccccc1-c1nc2c(cnn2Cc2cccc(F)c2)[nH]1	-13	1.92
CN(C)c1nsc(NC(c2ccc3c(c2)CCO3)[C@H]2C[C@@H](O)C2)n1 (stereo not given in full)	-18	1.86
